Molecules are shown by their SMILES. Where a name gives a salt, the structure may show the parent alone. This is one part of the list. Most values come without repeats; read them as rough.

Planktonic growth data for 48 compounds are collected here from the supplement of paper PMC7580552.
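Further: stationary (unshaken) cultures in 96-well plates, started at OD600 0.05 from mid-exponential cells, with compounds supplied from DMSO stocks.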

This assay relates to Escherichia coli W3110. Kind of assay: planktonic growth (OD600) relative to untreated control; higher = more growth. To be noted: 10 µM; 20-24 h; 30 °C; TB.
`CC(=O)OCC(=O)[C@@]1(O)CC[C@H]2[C@@H]3CCC4=CC(=O)C=C[C@]4(C)[C@@]3(F)[C@@H](O)C[C@@]21C` [Isoflupredone acetate] yielded a planktonic growth of 101%.

Regarding `COc1cc(C(=O)N2CCOCC2)cc(OC)c1OC` [Trimetozine], the planktonic growth is 95%.

As to `C#C[C@]1(O)CC[C@H]2[C@@H]3[C@H](C)CC4=C(CCC(=O)C4)[C@H]3CC[C@@]21C` [Tibolone], the planktonic growth came to 105%.

In turn, `CN(C)CCCOc1nn(Cc2ccccc2)c2ccccc12` [Benzydamine hydrochloride] returned a planktonic growth of 91%.

`CN1CCN(C(c2ccccc2)c2ccc(Cl)cc2)CC1` (stereo not drawn) [Chlorcyclizine hydrochloride] came in with a planktonic growth of 97%.

`O=C(N/N=C/c1ccc([N+](=O)[O-])o1)c1ccc(O)cc1` [Nifuroxazide] registered a planktonic growth of 92%.

For the compound `CN(N=O)C(=O)N[C@@H](C=O)[C@@H](O)[C@H](O)[C@H](O)CO` [Streptozotocin], the planktonic growth was determined as 93%.

In the case of `CCC(=O)[C@@]1(C)[C@H](C)C[C@H]2[C@@H]3CCC4=CC(=O)C=C[C@]4(C)[C@H]3[C@@H](O)C[C@@]21C` [Rimexolone], the planktonic growth was 92%.

Compound `CC(=O)Nc1c(I)c(NC(C)=O)c(I)c(C(=O)O)c1I` [Diatrizoic acid dihydrate] came in with a planktonic growth of 97%.

`CCc1cc(C(N)=S)ccn1` [Ethionamide] returned a planktonic growth of 97%.

With `CCc1c2c(nc3ccc(OC(=O)N4CCC(N5CCCCC5)CC4)cc13)-c1cc3c(c(=O)n1C2)COC(=O)[C@]3(O)CC` [Irinotecan hydrochloride trihydrate], the planktonic growth turned out to be 114%.

As for `CNCCC=C1c2ccccc2CCc2ccccc21` [Nortriptyline hydrochloride], the planktonic growth is 92%.

In turn, `C[C@H]1[C@H](NC(=O)/C(=N\OC(C)(C)C(=O)O)c2csc(N)n2)C(=O)N1S(=O)(=O)O` [Aztreonam] came in with a planktonic growth of 20%.

Regarding `Cc1c(Cl)cccc1Nc1ncccc1C(=O)O` [Clonixin Lysinate], the planktonic growth turned out to be 97%.

Compound `Cc1ccc(/C(=C\CN2CCCC2)c2ccccn2)cc1` [Triprolidine hydrochloride] gave a planktonic growth of 95%.

For the compound `CC(C)(O/N=C(\C(=O)N[C@@H]1C(=O)N2C(C(=O)[O-])=C(C[n+]3ccccc3)CS[C@H]12)c1csc(N)n1)C(=O)O` [Ceftazidime pentahydrate], the planktonic growth was found to be 3%.

Turning to `C[C@]12C=CC(=O)C=C1CC[C@@H]1[C@@H]2C(=O)C[C@@]2(C)[C@H]1CC[C@]2(O)C(=O)CO` [Prednisone], the planktonic growth worked out at 99%.

`CNC(=C[N+](=O)[O-])NCCSCc1csc(CN(C)C)n1` [Nizatidine] registered a planktonic growth of 106%.

With `CC(C)CN(C[C@@H](O)[C@H](Cc1ccccc1)NC(=O)O[C@H]1CCOC1)S(=O)(=O)c1ccc(N)cc1` [Amprenavir], the planktonic growth came to 93%.

`CCn1cc(C(=O)O)c(=O)c2cc(F)c(N3CCNC(C)C3)c(F)c21` (stereo not drawn) [Lomefloxacin hydrochloride] displayed a planktonic growth of 26%.

In the case of `COc1cc(C)nc(-n2nc(C)cc2OC)n1` [Epirizole], the planktonic growth came out at 94%.

For the compound `CS(=O)(=O)Nc1ccc([N+](=O)[O-])cc1Oc1ccccc1` [Nimesulide], the planktonic growth amounted to 95%.

For the compound `CCn1cc(C(=O)O)c(=O)c2cc(F)c(N3CCN(C)CC3)cc21` [Pefloxacine], the planktonic growth was 6%.

Compound `C[C@@H]1CN(c2c(F)c(N)c3c(=O)c(C(=O)O)cn(C4CC4)c3c2F)C[C@H](C)N1` [Sparfloxacin] yielded a planktonic growth of 6%.

Take `COc1ccc2cc(CCC(C)=O)ccc2c1` [Nabumetone]: the planktonic growth amounted to 95%.

Turning to `CCn1cc(C(=O)O)c(=O)c2ccc(C)nc21` [Nalidixic acid sodium salt], the planktonic growth was 90%.

For the compound `C#CCN(C)Cc1ccccc1` [Pargyline hydrochloride], the planktonic growth is 93%.

On to `CCN(CC)CCNC(=O)c1cc(S(C)(=O)=O)ccc1OC` [Tiapride hydrochloride], for which the planktonic growth was determined as 90%.

Compound `O=C(CCCN1CC=C(n2c(=O)[nH]c3ccccc32)CC1)c1ccc(F)cc1` [Droperidol] showed a planktonic growth of 100%.

In the case of `COc1nc(C)nc(Cl)c1NC1=NCCN1` [Moxonidine], the planktonic growth was found to be 87%.

Turning to `CCCCS(=O)(=O)N[C@@H](Cc1ccc(OCCCCC2CCNCC2)cc1)C(=O)O` [Tirofiban hydrochloride], the planktonic growth worked out at 105%.

In turn, `COc1cc2nc(N3CCN(C(=O)c4ccco4)CC3)nc(N)c2cc1OC` [Prazosin hydrochloride] showed a planktonic growth of 94%.

For `CCn1cc(C(=O)O)c(=O)c2cnc(N3CCNCC3)nc21` [Pipemidic acid], the planktonic growth was 34%.

`Cc1ccc(S(=O)(=O)NC(=O)NN2CC3CCCC3C2)cc1` (stereo not drawn) [Gliclazide] had a planktonic growth of 98%.

For `COc1ccc(C(=O)NCc2cccnc2)cc1C(=O)NCc1cccnc1` [Picotamide monohydrate], the planktonic growth was determined as 93%.

The compound `NC[C@H]1O[C@H](O[C@H]2[C@H](O[C@@H]3O[C@H](CO)[C@@H](O)[C@H]3O)[C@@H](O)[C@H](N)C[C@@H]2N)[C@H](N)[C@@H](O)[C@@H]1O` [Ribostamycin sulfate salt] had a planktonic growth of 67%.

Regarding `Cc1ccc(C(=O)c2cc(O)c(O)c([N+](=O)[O-])c2)cc1` [Tolcapone], the planktonic growth was determined as 94%.

In the case of `COc1ccc2[nH]cc(CCNC(C)=O)c2c1` [Melatonin], the planktonic growth is 92%.

Turning to `CC(C)N1CCN(c2ccc(OCC3COC(Cn4cncn4)(c4ccc(Cl)cc4Cl)O3)cc2)CC1` (stereo not drawn) [Terconazole], the planktonic growth was 93%.

In the case of `CN1C2CCCC1CC(NC(=O)c1nn(C)c3ccccc13)C2` (stereo not drawn) [Granisetron], the planktonic growth was found to be 100%.

`Cc1ncc([N+](=O)[O-])n1CCO` [Metronidazole] gave a planktonic growth of 112%.

`CCN(CC)CC#CCOC(=O)C(O)(c1ccccc1)C1CCCCC1` (stereo not drawn) [Oxybutynin chloride] had a planktonic growth of 107%.

`OC(CCN1CCCCC1)(c1ccccc1)C1CC2C=CC1C2` (stereo not drawn) [Biperiden hydrochloride] came in with a planktonic growth of 96%.

Compound `O=C(NCCNCC(O)COc1ccc(O)cc1)N1CCOCC1` (stereo not drawn) [Xamoterol hemifumarate] had a planktonic growth of 104%.

In the case of `CCN(Cc1ccncc1)C(=O)C(CO)c1ccccc1` (stereo not drawn) [Tropicamide], the planktonic growth is 93%.

Take `CN(C)CCOC1=Cc2ccccc2Sc2ccc(Cl)cc21` [Zotepine]: the planktonic growth was 99%.

`CCN1CCN(C(=O)N[C@@H](C(=O)N[C@@H]2C(=O)N3[C@@H]2SC(C)(C)[C@@H]3C(=O)O)c2ccccc2)C(=O)C1=O` [Piperacillin sodium salt] had a planktonic growth of 21%.

For the compound `CO[C@@H]1[C@@H](OC(N)=O)[C@@H](O)[C@H](Oc2ccc3c(O)c(NC(=O)c4ccc(O)c(CC=C(C)C)c4)c(=O)oc3c2C)OC1(C)C` [Novobiocin sodium salt], the planktonic growth amounted to 92%.
